Measured values from article PMC6212790.
This is one part of the list. At the low end of the ranking the order means little.

These sequences were tested against T1, GST-Rok (full length) (UniProt O34857) (assay: protein binding microarray). Details: Rok is a gene silencer of Bacillus subtilis; high values mean tight binding; most listed sequences are background and not binding sites; double strand, one strand shown.
T1 sequence: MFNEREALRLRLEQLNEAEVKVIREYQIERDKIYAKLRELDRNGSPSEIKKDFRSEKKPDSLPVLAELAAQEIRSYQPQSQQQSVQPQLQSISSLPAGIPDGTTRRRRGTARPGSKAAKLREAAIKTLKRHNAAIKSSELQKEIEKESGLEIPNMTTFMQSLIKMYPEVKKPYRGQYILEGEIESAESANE
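Also: rank score from −0.5 (least bound) to 0.5 (best bound).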

Row | Sequence | binding signal [E-score]
1 | GGGTGGTA | -0.00701
2 | CCTGTAAA | -0.0295
3 | TCAGTGGA | -0.0186
4 | AGGTCGGA | -0.261
5 | TAAGGCCA | -0.0495
6 | GGTACCAC | 0.116
7 | ATCCGAAG | 0.0408
8 | CTGGCCCA | -0.303
9 | ACTCATGC | -0.0119
10 | TAGACTAA | 0.075
11 | GCGATTTA | 0.315
12 | CCATAGCA | -0.0553
13 | AATACGTC | 0.232
14 | TATTCCGA | 0.154
15 | AGAAAGGA | -0.125
16 | GACTCACC | -0.225
17 | GGTTCGCA | -0.114
18 | ATCGCATC | -0.00537
19 | ATAATGCA | 0.308
20 | AATCTCAC | 0.0961
21 | CGACACTA | 0.0897
22 | CGATGCGA | -0.109
23 | ACCAGAGT | 0.0694
24 | ACGCTGGG | -0.178

Row | Sequence | binding signal [E-score]
25 | ACCAATCC | 0.0382
26 | GCATTGGC | -0.313
27 | CGCTTTCC | -0.16
28 | GACAAGGA | -0.0446
29 | CCTTTTGC | -0.0538
30 | AATGACCC | -0.157
31 | AGAAGGAC | -0.175
32 | AGCATTGC | 0.0757
33 | ACTATCGC | 0.233
34 | CGCAACAA | 0.0445
35 | ACTGATAT | 0.242
36 | AGTCCTAA | 0.02
37 | GTCACTTA | -0.119
38 | CAAAATAC | 0.351
39 | AGACCGTC | -0.193
40 | CTCAGCTA | 0.224
41 | CTGTGAGC | -0.185
42 | GAATAACC | 0.17
43 | CCTCGAAG | -0.0738
44 | CTGGGTGC | -0.153
45 | CATGCAAA | -0.0437
46 | GGTGTGCA | -0.122
47 | ACGATTCA | -0.00504
48 | GCTTTCCA | -0.126

Row | Sequence | binding signal [E-score]
49 | CACAGTCA | -0.0223
50 | TACCTTGA | 0.0553
51 | CACTAGCC | -0.172
52 | AGGGCCCT | -0.447
53 | GCTTGTAA | 0.144
54 | ATATAAGA | 0.211
55 | ACACCGAA | -0.00594
56 | AATCAGCC | -0.124
57 | AGGATAGC | -0.0214
58 | AACGATCT | -0.0279
59 | AGGGGTGA | -0.368
60 | AACCTTAG | -0.0335
61 | CAATTCTC | 0.233
62 | AGAGTAAC | -0.112
63 | CTCAGGCA | -0.175
64 | ACTGTGCT | -0.0894
65 | TAACCGGA | -0.108
66 | ATTAAAAG | 0.172
67 | CTTAGGTC | 0.00712
68 | ACTAGTAC | 0.41
69 | TCTAAAGA | -0.07
70 | ATGGCAGC | -0.061
71 | CACTCTCA | -0.109
72 | GGCGACGA | -0.317

Row | Sequence | binding signal [E-score]
73 | GAGAGGAC | -0.308
74 | ATCCCTTG | -0.125
75 | AGGCTCTC | -0.282
76 | CTTTTGAA | -0.0531
77 | CATAGGAC | 0.161
78 | CAGGCCCA | -0.343
79 | CCCCCGCC | -0.404
80 | AGGTATTC | -0.0919
81 | CACGGATC | 0.0143
82 | TATTACAA | 0.236
83 | ATTGTCGC | 0.0939
84 | GCAGGAGC | -0.3
85 | AGGTATTG | 0.155
86 | CTCTTGGC | -0.0458
87 | AATGTGGG | -0.0708
88 | GGTTATAA | 0.146
89 | GGTAGCCA | -0.0127
90 | ATCCACCA | -0.0266
91 | CAGGAATG | -0.136
92 | CCCTCAGC | -0.383
93 | ACGTCGCG | 0.0874
94 | AAACCCCG | -0.432
